Results on 22 molecules are retold here after PMC12136788.

First the molecules themselves.
T1: UNK ZnF1-3 (human, UniProt Q9C0B0 31-174)
T1 sequence: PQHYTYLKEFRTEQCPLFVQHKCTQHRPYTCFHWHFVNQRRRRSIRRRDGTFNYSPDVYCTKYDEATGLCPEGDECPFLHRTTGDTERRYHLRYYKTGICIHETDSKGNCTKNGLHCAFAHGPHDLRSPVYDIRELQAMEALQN

B1: chr1:68170538:68170539:-_ENSG00000172380_ENST00000370982|hu_mus|motif|central (ssRNA)
RNA: GGGAGUUCUACAGUCCGACGAUCCUUUGCAACGUUCUUUCAUUACCUUUUUUUUUGUACAAAAAUUUCACGGAAAUUUACCGGCACAGAGUCAGGAUAAUGAUGUAACUCUGAAGGGAGGGAGCUACCGCAGGAAGUUUCAGGCAACAGAGGAUUGAGCAUCA
B2: chr5:128440902:128440903:+_ENSG00000066583_ENST00000173527|hu_mus|hu_hu_hu_mus_True|68_88 (ssRNA)
RNA: GGGAGUUCUACAGUCCGACGAUCUUGAACGGUGCUGCCAAGUCCUUUAGGGUAUUGUUCCGUUAUGAUAACAGGAAUCCCUAAGAUCCGAGCUCCUUGCAACAGUCUCUGUCCCACACUAAUGAUGUCCCCAAAGUAUUUGAUCAACAGAGGAUUGAGCAUCA
B3: chr11:87044885:87044886:-_ENSMUSG00000046442_ENSMUST00000055438|mus_hu|FALSE|FALSE (ssRNA)
RNA: GGGAGUUCUACAGUCCGACGAUCAGGACCAAACAUCUCAACUGGUAGCAAAAACUGGGCACUGUGAGGUUUGCUUGCUUCUAUUUGUGUGAGAUCUAGGUAGCCUGGGUCUUCCAGCACGUUGAUUUGGGACCCUGGGCUCAGCAACAGAGGAUUGAGCAUCA
B4: 173316423_173316543_141_3pUTR_ENSG00000113742_ENST00000334035|human|control|control (ssRNA)
RNA: GGGAGUUCUACAGUCCGACGAUCACUCUUAAAAAAAUCUCUUAAAACAUUGACUUGGAUCCAAUUGGGCUUAUUUUUAGGAGGGAAUAAAAAUGAAGAGGGUAAAAAUCAAGUCUUUGGUUAGUAAAAUAGGCGCUUUCUUUUCAACAGAGGAUUGAGCAUCA
B5: 234758418_234761243_333_CDS_ENSG00000123485_ENST00000411486|human|control|control (ssRNA)
RNA: GGGAGUUCUACAGUCCGACGAUCGACUGUGCGGUGCGAGGGAAGCUCAGGACCCCAGGCUGCAGCUUGCACGGAGCCAUCUGUCCUGUCCGCGGGCUUCAUGGAGGAGUCCUGGAUCUCUCCUUCGUUUCUUUCCUUUAUUAGCAACAGAGGAUUGAGCAUCA
B6: chr7:151048522:151048523:+_ENSG00000013374_ENST00000566856|hu_mus|hu_hu_hu_mus_True|38_58 (ssRNA)
RNA: GGGAGUUCUACAGUCCGACGAUCCUGUUUCUUAUUUAUUACGAUCUUGAUGUAAUUUUCUUGAAAUCCGAAAGUUUCAGCUAUUUUACACCUCAGGUCUCUGCCAGUGACAUGCAAGCGGGUCUCCAACAAGCUUUUCUUAUCCAACAGAGGAUUGAGCAUCA
B7: chr13:31722556:31722557:-_ENSG00000120694_ENST00000320027|perfect_dup|FALSE|FALSE (ssRNA)
RNA: GGGAGUUCUACAGUCCGACGAUCCUCGUGCACACCUUCCGUUUCUUCCGAGUCGUGGUUCCAGACCAGAGAUAUUGGAAAAGGAACUGCAUCGGUGACAGAGAACUCUCUAACUUUAAAUGCCGGAGAAAGAAUUGCACACUGCAACAGAGGAUUGAGCAUCA
B8: chr7:54823571:54823572:-_ENSG00000132432_ENST00000352861|hu_mus|hu_hu_hu_mus_False|48_108 (ssRNA)
RNA: GGGAGUUCUACAGUCCGACGAUCUCCCAUUAUAGCAAAUCCUAUAGCUGUAGCCAUGGCAAUCUUCUGGAAUUCUUUUCUGUCGGGUUUAGUGCAUCUUUUAACCAGCCGAAUUGAGUCCUUUACAAACUGCCGGCUGGGCUCCAACAGAGGAUUGAGCAUCA
B9: chr7:141441981:141441982:+_ENSG00000106028_ENST00000265304|hu_mus|hu_hu_hu_mus_False|1_58 (ssRNA)
RNA: GGGAGUUCUACAGUCCGACGAUCCUCAUGUCUUACAAACUGACGAAAUACCUGUAACACAGGUCUUCGAAACAUGGCUUCUAUUUUUCUUACAACCUAAUCUUUAGGCUUUUCCUAAAGGAAAGAAAGAAAAGAGAAGCCCAGCAACAGAGGAUUGAGCAUCA
B10: 52803601_52810448_4060_CDS_ENSG00000157077_ENST00000287727|human|control|control (ssRNA)
RNA: GGGAGUUCUACAGUCCGACGAUCGAAAAACACCUCUGUCCAUCUGAUUACUUUUCCAUUUGCUUUAUAUUCUGAUCCAUGGAAUAUCUUCACAUUUGUUAUAGUCUCCAUGGACUUCCCAUCUAUAGGACUUACGACACCCUUCAACAGAGGAUUGAGCAUCA
B11: chr5:71593506:71593507:-_ENSG00000113048_ENST00000457646|hu_hu|FALSE|FALSE (ssRNA)
RNA: GGGAGUUCUACAGUCCGACGAUCGAUCUAUCUCUUCCCGAGAGGAAAUGUUGUCUAUAAGCCGUGAUAUUGUUAAAGAACUAACAGGCAACUUUCUCUCAAAUGUUUUAUCCAUUAAAGAUGCAAGAUCAGCAAGACAGUAAUCAACAGAGGAUUGAGCAUCA
B12: chr4:115894766:115894767:+_ENSMUSG00000028698_ENSMUST00000030464|mus_hu|mus_mus_mus_hu_True|58_78 (ssRNA)
RNA: GGGAGUUCUACAGUCCGACGAUCUUCCACACGGAAAUGUACUUCGGGUUUUCCAACGCCAGUACAAAGUCCGGCCAACUACUAGGAACAGGGUCCUCCCCCUCUCUCCUACAGAACACAACAAAAUGCCCCCGAACUUUCAAGCAACAGAGGAUUGAGCAUCA
B13: chr5:34943985:34943986:+_ENSMUSG00000029106_ENSMUST00000114338|mus_mus|motif|central (ssRNA)
RNA: GGGAGUUCUACAGUCCGACGAUCGUGGUUGGAGGUGGUGAGGUCACCACUGCGGCCCGAGUGUCACCAUUCAUUGCACAAUUUUCCGGGGGUCCUCCGCGGAGAAUCGGGGAGAGAGCACGGCUUCCCGGGUCCGAGUGCGGCCAACAGAGGAUUGAGCAUCA
B14: chr10:93459826:93459827:-_ENSMUSG00000036099_ENSMUST00000119818|mus_hu|FALSE|FALSE (ssRNA)
RNA: GGGAGUUCUACAGUCCGACGAUCUCCCCAUACCAGCCAGGAAGACACAAUCCACCAAGUGGGAAGCAUAACGAGCAAGCUAAUGAAGGCAAAUAGCAUUGAGAGAUCCCAAAUAUUAGGGGUUGCCAGGGAGCAAAGUGUUGGCAACAGAGGAUUGAGCAUCA
B15: chr16:46836887:46836888:-_ENSG00000155330_ENST00000285697|hu_hu|motif|central (ssRNA)
RNA: GGGAGUUCUACAGUCCGACGAUCUUCAGCAGAUUUUGCAAACAAGUAUCAGAGAAUAAGUCUUUGAUUGAUAAUUUUUCGGUUUAUUUCUGCCAAGGCGACUGAAAACACGAAAGCCUUUUCAUCAGACAGGUUAGCAUAGAUCAACAGAGGAUUGAGCAUCA
B16: chr3:25648697:25648698:-_ENSG00000077097_ENST00000264331|hu_mus|FALSE|FALSE (ssRNA)
RNA: GGGAGUUCUACAGUCCGACGAUCUUUGUCAUUUGAAGAUUUUUCUGGAGUAGCUUUGGAUUUGCCUGAAGAAAAAGCAUACUCAUCUUUAUCUAAGCCAUCUGAAGGAACAAAUUCAUCUUCCCCAUCAUUUGUUAUGGGAGACAACAGAGGAUUGAGCAUCA
B17: 110845328_110845448_7506_3pUTR_ENSMUSG00000021700_ENSMUST00000167824|mouse|control|control (ssRNA)
RNA: GGGAGUUCUACAGUCCGACGAUCUCAGCGACCACGUGACAACAAGUGAAGCCUUUAACUAUCCUCUUAAACUAUUAUUCUGUGGUCAGCUACCUGCUUCUGCUUUUAUUUCCCUUCUAAUUUGGCACUAAGUCUUUGCUAUCUCAACAGAGGAUUGAGCAUCA
B18: 48584822_48591857_1498_CDS_ENSG00000141646_ENST00000342988|human|control|control (ssRNA)
RNA: GGGAGUUCUACAGUCCGACGAUCCUUAAAUGUCUCUCCUACCUGAACAUCCAUUUCAAAGUAAGCAAUGGAACACCAAUACUCAGGAGCAGGAUGAUUGGAAAUGGGAGGCUGGAAUGCAAGCUCAUUGUGAACAGGCCAGUACAACAGAGGAUUGAGCAUCA
B19: chr2:230636304:230636305:-_ENSG00000153827_ENST00000389045|hu_hu|FALSE|FALSE (ssRNA)
RNA: GGGAGUUCUACAGUCCGACGAUCGUACUGAAGAUGACUGAGUGGGAAGACUGAUUCAAAUCCAUCUCUGAACGAAUCAAAUUGCCUAGAAACGCCUUCAUUUAGUGCCCAGAAUAUAACCAGUCUUAGAUACUCCUCUAAAUUCAACAGAGGAUUGAGCAUCA
B20: chr4:95690885:95690886:+_ENSMUSG00000028572_ENSMUST00000156910|mus_mus|mus_mus_mus_hu_False|1_88 (ssRNA)
RNA: GGGAGUUCUACAGUCCGACGAUCUUUAGAAAAUGUUAAAUACCAUGAGCAUGCUAAUUCAAAGGCUUAUUUUAUUUUACCAGAAGUCACAGGCAAGCAGACACUACAAGAAUAUAUGAAAAUGAAACUCAACAAUAAAAUGUACAACAGAGGAUUGAGCAUCA
B21: 27607926_27608704_485_CDS_ENSG00000115241_ENST00000350803|human|control|control (ssRNA)
RNA: GGGAGUUCUACAGUCCGACGAUCAUGCAGCAGUGCAGCCUCCUCAUUGUCCACAUCAUCUUCAUCAGCUACUUUUUCUUUUUCAUCUUCAUCCUCAGUGGGUCGCCCUGCAAUCUGUGCCAGCUCUUUAAUGACUUCUUCAGUCAACAGAGGAUUGAGCAUCA
B22: chr18:43482012:43482013:-_ENSMUSG00000024501_ENSMUST00000121805|mus_hu|FALSE|FALSE (ssRNA)
RNA: GGGAGUUCUACAGUCCGACGAUCUCUGAAAGACCCCCACAUCUUUGAAGUGUAAACUAAGAGCUACAUUUUCCCUUUUACUACAUCUCCCUUAAAAGAAAAGCACUACAAGAGCUUUAAAAUAGCAAGCUUCCCUAUUCUAAGCAACAGAGGAUUGAGCAUCA

The list shows a part of the results.

This assay deals with T1, UNK ZnF1-3. As to the kind of experiment: nsRBNS (natural sequence RNA bind-n-seq); RBNS binding buffer (assumed for nsRBNS): 25 mM Tris pH 7.5, 150 mM KCl, 3 mM MgCl2, 0.01% Triton X-100, 500 ug/ml BSA, 20 U/ml SUPERase-In, 4 C; UNK is unkempt and MSI1 is Musashi-1; names of the RNAs are library labels; protein concentration not given here; high values mean tight binding.
The molecule B1 returned a binding signal of 1.28 enrichment R.

B2 gave a binding signal of 0.838 enrichment R.

Molecule B3 gave a binding signal of 1.01 enrichment R.

Take B4: the binding signal amounted to 2.19 enrichment R.

B5 gave a binding signal of 0.379 enrichment R.

In turn, B6 registered a binding signal of 0.649 enrichment R.

For the molecule B7, the binding signal was 1.13 enrichment R.

For B8, the binding signal was 0.714 enrichment R.

B9 had a binding signal of 0.396 enrichment R.

B10 registered a binding signal of 0.618 enrichment R.

Regarding B11, the binding signal is 0.888 enrichment R.

B12 gave a binding signal of 0.86 enrichment R.

For the molecule B13, the binding signal is 1.38 enrichment R.

The molecule B14 yielded a binding signal of 1.97 enrichment R.

On to B15, for which the binding signal stood at 0.741 enrichment R.

B16 came in with a binding signal of 0.852 enrichment R.

Consider B17, for which the binding signal worked out at 0.627 enrichment R.

With B18, the binding signal stood at 1.46 enrichment R.

Consider B19, for which the binding signal stood at 0.98 enrichment R.

For B20, the binding signal is 1.79 enrichment R.

Consider B21, for which the binding signal worked out at 0.631 enrichment R.

As for B22, the binding signal amounted to 1.11 enrichment R.
